Measurements from PubChem BioAssay AID651820 (National Center for Advancing Translational Sciences (NCATS), 2012).
About 12,000 (3.5%) of roughly 340,000 compounds were called active. The inconclusive results got no clear call from the source; some entries with a clear call stand among them for comparison. Calls follow the shape of the dose curve; as a rule, active = well fitted inhibition curve with a large enough effect; inconclusive = small, poorly fitted or top-dose-only effect, or another doubt; inactive = no such curve, though single readings can be large or run the other way. Potencies of inconclusive entries are left out as doubtful fits.

experiment: qHTS Assay for Inhibitors of Hepatitis C Virus (HCV); conditions: Huh7.5.1 HCVcc-Cre (HCVcc is cell-culture hepatitis C virus) infection, luciferase reporter, 44 h; series mostly up to 41.8 µM
In short: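 Seed cells (1,000/well) for 4 h; treat with compound and infect with HCVcc-Cre, moi about 0.5. Incubate 44 h, then detect luciferase activity.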
Potency is read from the fitted curve at half-maximal effect; tags tell the direction and shape of the fitted curve.

For `CCn1nc([N+](=O)[O-])c2c(-c3nc4ccccc4o3)c(N)n(CCCOC)c2c1=O`, which Potency is on record?
Its Potency is inconclusive [inhibitor, partial curve, poor fit].

With `Cc1cc(C)c(S(=O)(=O)Oc2ccccc2[N+](=O)[O-])c(C)c1` as the molecule, how does the Potency read?
Its Potency is active: 10 µM.

For `Cc1ccc(S(=O)(=O)N2CCCCC2)cc1NS(=O)(=O)c1ccc(Cl)c(C(=O)O)c1`, which Potency is on record?
Its Potency is “inactive”.

Which Potency does the source give for `Cc1cccc(C(=O)Nc2cccc(C(=O)N/N=C/c3ccncc3)c2)c1` here?
The Potency was inconclusive [inhibitor, full curve].

With `O=C(c1ccccc1)N1CCCC(c2ccc(Cl)cc2)=N1` as the molecule, how does the Potency read?
The Potency was inconclusive [inhibitor, partial curve].

For `Cc1onc(-c2ccccc2Cl)c1C(=O)N1CCC(Cc2ccccc2)CC1`, which Potency is on record?
Its Potency is inconclusive [inhibitor, single point].

With `Cc1c(OCc2ccccc2)c(=O)ccn1Cc1ccc(F)cc1` as the molecule, how does the Potency read?
Its Potency is active: 1.78 µM.

Which Potency does the source give for `O=C(O)c1cccnc1Sc1ccc(Cl)cc1` here?
The Potency was inconclusive [inhibitor, single point].

For `COc1ccc(-c2cc3nc(C)c(CCC(=O)NC(C)CCc4ccco4)c(C)n3n2)c(OC)c1` (centres undefined), which Potency is on record?
Its Potency is inconclusive [inhibitor, single point].

With `C[C@@]12C(=O)N(c3ccc(Br)cc3)C(=O)N1[C@@H]1c3ccccc3OC[C@@H]1[C@H]2c1ccccc1` as the molecule, how does the Potency read?
Its Potency is inconclusive [inhibitor, partial curve].

Which Potency does the source give for `O=C(/C=C/c1ccco1)OCc1nnc(-c2ccc(Cl)cc2)o1` here?
Its Potency is “inactive”.

Which Potency does the source give for `O=C(NC(CO)C(O)c1ccc([N+](=O)[O-])cc1)C(Cl)Cl` (centres undefined) here?
Its Potency is inconclusive [inhibitor, full curve, poor fit].

For `Cc1cc(-c2ccccc2)[nH]c(=O)c1S(=O)(=O)c1ccc(Cl)cc1`, which Potency is on record?
Its Potency is inconclusive [inhibitor, single point].

For `O=C(N/N=C/c1ccccc1Br)c1ccc(CSc2cccc3cccnc23)cc1`, which Potency is on record?
The Potency was inconclusive [inhibitor, partial curve].

With `O=C(CCn1c(=O)sc2ccccc21)Nc1cccnc1` as the molecule, how does the Potency read?
Its Potency is “inactive”.

Which Potency does the source give for `Clc1ccc(Nc2ccc3ccccc3n2)cc1` here?
The Potency was “inactive”.

For `O=C(COC(=O)Cc1n[nH]c(=O)c2ccccc12)NNC(=O)c1ccc(Cl)cc1`, which Potency is on record?
The Potency was “inactive”.

Which Potency does the source give for `CC(CCc1ccc(O)cc1)NCCC(c1ccccc1)c1ccccc1` (centres undefined) here?
The Potency was active: 14.1 µM.

With `Cc1ccc(C(=O)Nc2cccc3ccccc23)o1` as the molecule, how does the Potency read?
The Potency was “inactive”.

With `Cn1c(=O)n(C)c2cc(NC(=O)c3ccc(F)cc3)c(Br)cc21` as the molecule, how does the Potency read?
The Potency was “inactive”.

Which Potency does the source give for `Nc1ccc(C(=O)Nc2ccc3nc(-c4cccnc4)[nH]c3c2)cc1` here?
Its Potency is “inactive”.

Which Potency does the source give for `CC(=O)N1N=C(c2cccc(NS(=O)(=O)c3ccc(C)cc3)c2)CC1c1ccco1` (centres undefined) here?
The Potency was active: 3.16 µM.

With `O=C(NCCN1CCN(Cc2ccccc2Cl)CC1)Nc1ccccc1` as the molecule, how does the Potency read?
Its Potency is inconclusive [inhibitor, single point].

Which Potency does the source give for `C=C(C)CSc1nc2c(c(=O)[nH]c(=O)n2C)n1Cc1ccccc1` here?
Its Potency is inconclusive [inhibitor, partial curve].

For `Cc1csc(CN(C)C(=O)CC2C(=O)NCCN2Cc2ccc(Cl)c(F)c2)n1` (centres undefined), which Potency is on record?
Its Potency is “inactive”.

For `CSCC[C@H](NC(=O)c1cccs1)c1nnc2ccccn12`, which Potency is on record?
Its Potency is inconclusive [inhibitor, single point].

With `CC1=C(C(=O)OCc2ccccc2)C(/C=C/c2ccccc2)NC(=S)N1` (centres undefined) as the molecule, how does the Potency read?
The Potency was active: 8.91 µM.

With `Cc1ccccc1NC(=O)C1CCN(C(=O)NC2CCCCC2)CC1` as the molecule, how does the Potency read?
The Potency was inconclusive [inhibitor, single point].

Which Potency does the source give for `CCOC(=O)N1CCN(C(=O)CCNS(=O)(=O)c2ccc(C)c(C)c2)CC1` here?
The Potency was inconclusive [inhibitor, partial curve].

For `O=[N+]([O-])c1ccc(O)c(/C=N/Nc2ccccc2[N+](=O)[O-])c1`, which Potency is on record?
Its Potency is inconclusive [inhibitor, single point].

With `CCN(c1ccccc1)S(=O)(=O)c1ccc(OC)c(NC(=O)c2c(C)noc2C)c1` as the molecule, how does the Potency read?
The Potency was inconclusive [inhibitor, single point].

For `COc1ccc(C(=O)Nc2cc(S(=O)(=O)N3CCCCC3)ccc2OC)cc1`, which Potency is on record?
The Potency was “inactive”.

With `Cc1cccc2cc3c(N)c(C(=O)N4CCCc5ccccc54)sc3nc12` as the molecule, how does the Potency read?
The Potency was inconclusive [inhibitor, single point].

With `CCCCN(C)C(=O)Cn1cnc2sc(C)c(S(=O)(=O)N3CCN(c4ccccc4OC)CC3)c2c1=O` as the molecule, how does the Potency read?
Its Potency is “inactive”.

Which Potency does the source give for `CC[C@]12c3[nH]c4cc(-c5ccco5)ccc4c3CCN1C(=O)[C@@H](CC(=O)NCC13CC4CC(CC(C4)C1)C3)C[C@@H]2C(=O)N1CCN(C(=O)c2ccco2)CC1` here?
The Potency was inconclusive [inhibitor, single point].

For `Cc1cc(N)n2nc(-c3ccc(C(C)(C)C)cc3)cc2n1`, which Potency is on record?
The Potency was inconclusive [inhibitor, partial curve].

For `O=C(COC(=O)c1ccccc1OCc1ccc(Cl)cc1)NCC1CCCO1` (centres undefined), which Potency is on record?
The Potency was inconclusive [inhibitor, partial curve].

With `O=C(CNC(=S)N(CCCN1CCOCC1)Cc1cccs1)NC1CCCC1` as the molecule, how does the Potency read?
The Potency was inconclusive [inhibitor, single point].

Which Potency does the source give for `CCS(=O)(=O)c1ccc2oc(SCC(=O)NCCc3ccc(F)cc3)nc2c1` here?
The Potency was “inactive”.

With `Cc1cc(C)c2nc(C(F)(F)F)nc(NCCCN3CCOCC3)c2c1` as the molecule, how does the Potency read?
The Potency was inconclusive [inhibitor, single point].

Which Potency does the source give for `CN1CCN(CCOCCOc2c(Cl)cc(Cl)cc2Cl)CC1` here?
The Potency was inconclusive [inhibitor, single point].

With `CC(=O)c1cc2c(cc1NC(=O)Cn1nc(-c3ccc(F)cc3)ccc1=O)OCO2` as the molecule, how does the Potency read?
Its Potency is inconclusive [inhibitor, single point].

Which Potency does the source give for `C=CCC[C@H](Cc1ccc(F)cc1)C(=O)OC[C@@H](Cc1c[nH]c2ccccc12)NC(=O)[C@H](CC=C)CC(=O)N[C@H](CO)Cc1ccccc1` here?
The Potency was inconclusive [inhibitor, partial curve].

For `CCCOc1ccc(NC(=O)CC2C(=O)N(Cc3ccccc3)C(=S)N2Cc2cccs2)cc1` (centres undefined), which Potency is on record?
Its Potency is inconclusive [inhibitor, single point].
